The RNAGym collection of RNA variant scans (doi:10.1101/gad.245936.114)
Variants at the floor of the assay are shown more often than the library holds them.

B1: tRNA (parent)
chain: CUCUCGGUAGCCAAGUUGGUUUAAGGCGCAAGACUUUAAUUUAUCACUACGAAAUCUUGAGAUCGGGCGUUCGACUCGCCCCCGGGAGAUUUUUUCCUCGAGCAA

Variants of: B1
Test: nonsense suppression (GFP-seq) (ratio to wild type); higher = more function; SUP4oc tRNA, yeast GFP reporter sort-seq
Summary of the method: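 Yeast carrying genome-integrated SUP4oc tRNA variants from a library with ~3% random mutations were grown in raffinose/galactose medium with 80 mg/L adenine. Each strain also carried a galactose-driven GFP ochre reporter and RFP. Cells were sorted into GFP/RFP bins, and each bin was Illumina-sequenced (phred ≥30). Nonsense suppression (GFPSEQ) is the bin median GFP/RFP, weighted by each variant's estimated cell share per bin, relative to wild-type SUP4oc; variants needed ≥100 reads and ≥30 cells.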

| Variant | nonsense suppression |
| --- | --- |
| C1G U4C A13C U17A U22G G78U | ≤ 0.026 |
| C1U G15A A24G A87G | ≤ 0.026 |
| U2A A9U U16C C56U | ≤ 0.026 |
| C1G C11G G15U U17C A23U U63C | ≤ 0.026 |
| C1U C34G | ≤ 0.026 |
| C1G U17A G61C | ≤ 0.026 |
| C1U G10C | ≤ 0.026 |
| C1U U8G A9G | ≤ 0.026 |
| C1G C27G U63A A87U | ≤ 0.026 |
| C1U A33C U57G | ≤ 0.026 |
| C1G G15U | ≤ 0.026 |
| C1G G15C | ≤ 0.026 |
| C1G C12G C56A G61U U71G U76C | ≤ 0.026 |
| C1U G6U G28U C29A | ≤ 0.026 |
| C1G U17G U21A A23U | ≤ 0.026 |
| U2A A9U C72G | ≤ 0.026 |
| C1U C27U | ≤ 0.026 |
| C1U G18A U21G C27U | ≤ 0.026 |
| C1U C5G | ≤ 0.026 |
| C1G C11U A24G | ≤ 0.026 |
| C1G U4G G7C U55C G69C C72A | ≤ 0.026 |
| C1U G67C C82A | ≤ 0.026 |
| C1G U76A | ≤ 0.026 |
| C1U A14U A30C G32C G59U A74G | ≤ 0.026 |

| Variant | nonsense suppression |
| --- | --- |
| C1U G66C A89G | ≤ 0.026 |
| C1U G25U G59C | ≤ 0.026 |
| C1U A9C G61A U70C G84C G85U | ≤ 0.026 |
| U2A A23U | ≤ 0.026 |
| C1G G59A G61U A87U | ≤ 0.026 |
| C1G G88C | ≤ 0.026 |
| U2A A31U | ≤ 0.026 |
| C1U U2C U20G | ≤ 0.026 |
| C1U U20C A24G G85C | ≤ 0.026 |
| U2A C11A U71G | ≤ 0.026 |
| C1U U2C G26A A54U C79A C82G | ≤ 0.026 |
| C1G G6U A14U C29G | ≤ 0.026 |
| C1G U8G U63C G73U | ≤ 0.026 |
| C1G U8C U55G G69C | ≤ 0.026 |
| C1U G6U A33U A89G | ≤ 0.026 |
| U2A C11U G88A | ≤ 0.026 |
| U2A A24U C27U | ≤ 0.026 |
| C1U U22G | ≤ 0.026 |
| C1U A24C C72U | ≤ 0.026 |
| U2A C5U G6C C12A U63A G65C G86A | ≤ 0.026 |
| C1U C83A | ≤ 0.026 |
| C1U G73U U76A | ≤ 0.026 |
| U2A A24G G85C | ≤ 0.026 |
| C1U A87U | ≤ 0.026 |

| Variant | nonsense suppression |
| --- | --- |
| C1U U2A U20G | ≤ 0.026 |
| C1U C5U A31C | ≤ 0.026 |
| C1U G19U U35G A87C | ≤ 0.026 |
| U2A C11G G78U A87C | ≤ 0.026 |
| C1U U55A U57A A62U C64A A87U | ≤ 0.026 |
| C1G U2C U16C G78A | ≤ 0.026 |
| C1U A9U A13C C64U | ≤ 0.026 |
| C1U C5A U55C | ≤ 0.026 |
| U2A A60C C68G | ≤ 0.026 |
| C1U C27G A30U | ≤ 0.026 |
| C1G G18C G25U A60C | ≤ 0.026 |
| C1U G28C U58G | ≤ 0.026 |
| C1U U20A G59U | ≤ 0.026 |
| C1G C34G G65A A89U | ≤ 0.026 |
| C1U C80G | ≤ 0.026 |
| C1U C80A | ≤ 0.026 |
| C1G C12G A24G G26A | ≤ 0.026 |
| U2A A13U C75U G85C | ≤ 0.026 |
| C1G G73C | ≤ 0.026 |
| C1U C5U G7C | ≤ 0.026 |
| U2A A30U A31G A62G G67A G86C | ≤ 0.026 |
| C1U G78C G84C | ≤ 0.026 |
| C1U U22C A23G C27G A60U A62C | ≤ 0.026 |
| C1G C5G A31C G73A | ≤ 0.026 |

| Variant | nonsense suppression |
| --- | --- |
| C1G G19U A60C U76A | ≤ 0.026 |
| C1U G65C U70A C79U G86C | ≤ 0.026 |
| C1U G18U U21A G26U | ≤ 0.026 |
| C1G C29G | ≤ 0.026 |
| C1G C29A | ≤ 0.026 |
| C1U A31G G88A | ≤ 0.026 |
| C1U G84U | ≤ 0.026 |
| C1U C12U U22C C64A G86C | ≤ 0.026 |
| C1U A13C C80G | ≤ 0.026 |
| C1U C11G U55G | ≤ 0.026 |
| U2A C27G | ≤ 0.026 |
| U2A C27U | 0.0357 |
| C1U C5U U71G | ≤ 0.026 |
| C1G G66U G86C | ≤ 0.026 |
| U2A C12G C34G | ≤ 0.026 |
| C1U A9U A24G A33G U57G G59C | ≤ 0.026 |
| C1U C3A G73C A74C | ≤ 0.026 |
| U2A A24C U55G G78A C81G | ≤ 0.026 |
| U2A A9U C79A | ≤ 0.026 |
| U2A A14G | ≤ 0.026 |
| C1U G88C | ≤ 0.026 |
| C1U A23U C72G G84C A89G | ≤ 0.026 |
| C1G U21A A33G | ≤ 0.026 |
| C1U G28A A62U | ≤ 0.026 |

| Variant | nonsense suppression |
| --- | --- |
| C1G G61C G84A | ≤ 0.026 |
| C1G U20G A23U C27A U76A G88U | ≤ 0.026 |
| C1U U8C A31G U35C | ≤ 0.026 |
| C1U G19U U70G | ≤ 0.026 |
| U2A A9U U20A U55A | ≤ 0.026 |
| C1U C3A A74G C83A | ≤ 0.026 |
| C1G U22A | ≤ 0.026 |
| C1U G18A A30C | ≤ 0.026 |
| C1G C12G A13G U17A A60U G84C | ≤ 0.026 |
| C1U U4A U21A A60G G69C | ≤ 0.026 |
| C1U G18A | ≤ 0.026 |
| C1U U8C C29U C82G | ≤ 0.026 |
| C1U G19U G28C U57C G84A | ≤ 0.026 |
| C1G U2A U17G G32C | ≤ 0.026 |
| C1G G10U U63C C64G | ≤ 0.026 |
| C1U A23G C27G U63A | ≤ 0.026 |
| U2A A14G G18C C29G U63A | ≤ 0.026 |
| C1G G10A A23C A33U C64A | ≤ 0.026 |
| C1U C34U A54C U76G G84A G88U | ≤ 0.026 |
| C1U G6U A9G G65C C75U G78A C79G | ≤ 0.026 |
| U2A C12U U17G C34G U71G C72A G78A | ≤ 0.026 |
| C1G G18A A31G | ≤ 0.026 |
| C1G U57G A60G U71A U76G | ≤ 0.026 |
| U2A C3U A87C | ≤ 0.026 |

| Variant | nonsense suppression |
| --- | --- |
| C1G U8A C27G | ≤ 0.026 |
| C1G C56A U57C C68G U71C | ≤ 0.026 |
| C1U G19C G88C | ≤ 0.026 |
| C1G U21A G67C U71C C82U | ≤ 0.026 |
| C1G C64A | ≤ 0.026 |
| C1U G10U G15U C68G | ≤ 0.026 |
| C1G G19C A87C | ≤ 0.026 |
| C1U G15U C56A | ≤ 0.026 |
| C1U U22G G69A | ≤ 0.026 |
| C1U A9U G18U | ≤ 0.026 |
| C1U U2A A54U | ≤ 0.026 |
| C1G C5U U70A A89C | ≤ 0.026 |
| C1U A24C U55G G66C C77G G85U | ≤ 0.026 |
| C1G U55C | 0.0398 |
| C1G G61A | ≤ 0.026 |
| U2A C5A G18C A87U | ≤ 0.026 |
| C1U A24C A31G A74U C79U | ≤ 0.026 |
| C1G U4C A24G U55A | ≤ 0.026 |
| C1U C12U | ≤ 0.026 |
| C1U C12A | ≤ 0.026 |
| C1U U16G A30G A54C G67U C83A | ≤ 0.026 |
| C1U G15A A89G | ≤ 0.026 |
| C1U G73A | ≤ 0.026 |
| C1U G73U | ≤ 0.026 |

| Variant | nonsense suppression |
| --- | --- |
| U2A | ≤ 0.026 |
| C1G U4C G61C | ≤ 0.026 |
| C1G C27U U57C G61A U70A | ≤ 0.026 |
| C1U A33U | ≤ 0.026 |
| C1U A33G | ≤ 0.026 |
| C1G G25U U35G A62C G69U | ≤ 0.026 |
| C1G U58C A62U G78U | ≤ 0.026 |
| C1U U2C C12G G26U G65A G67A U70C | ≤ 0.026 |
| C1U G15U U17G U35C U57C G78U A87G | ≤ 0.026 |
| U2A A31C U57G U70C A87U | ≤ 0.026 |
| C1U C77U | ≤ 0.026 |
| C1U C77G | ≤ 0.026 |
| C1U A9C A62C | ≤ 0.026 |
| C1U U70A C75A | ≤ 0.026 |
| C1G U2G A60U U76A C80U C81A | ≤ 0.026 |
| C1U A14C G15C U76A | ≤ 0.026 |
| C1U C5G G28A U35A C80G | ≤ 0.026 |
| C1U U21C | ≤ 0.026 |
| C1U G15A A23U C68A | ≤ 0.026 |
| C1G C11G | ≤ 0.026 |
| C1G G19C G61C G73U | ≤ 0.026 |
| U2A A9G A24C G66A | ≤ 0.026 |
| U2A A23U G26U U71A | ≤ 0.026 |
